Changes are numbered by the printed parent chain. Results are given in words; binding and its absence hold for the method and conditions named. Binding seen in cells or lysates may run through a third protein. Some results given as binding are weak or reduced against the parent protein; the word gives no strength.

The chains behind the UniProt entries cited, without tags or fusion partners. Where a name states a change or a piece, a line headed by the entry shows the natural chain unless it says otherwise.
UniProt P32958: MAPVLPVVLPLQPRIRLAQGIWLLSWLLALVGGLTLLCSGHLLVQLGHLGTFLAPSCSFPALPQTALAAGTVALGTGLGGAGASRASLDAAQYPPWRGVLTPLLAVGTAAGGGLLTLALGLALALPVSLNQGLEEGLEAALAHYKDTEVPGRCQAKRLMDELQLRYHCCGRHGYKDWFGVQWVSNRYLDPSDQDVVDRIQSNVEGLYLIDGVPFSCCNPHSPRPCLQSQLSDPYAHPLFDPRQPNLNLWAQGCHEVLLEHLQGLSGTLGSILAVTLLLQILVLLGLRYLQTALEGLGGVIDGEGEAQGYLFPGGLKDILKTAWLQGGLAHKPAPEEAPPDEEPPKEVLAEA
UniProt E1AZ71: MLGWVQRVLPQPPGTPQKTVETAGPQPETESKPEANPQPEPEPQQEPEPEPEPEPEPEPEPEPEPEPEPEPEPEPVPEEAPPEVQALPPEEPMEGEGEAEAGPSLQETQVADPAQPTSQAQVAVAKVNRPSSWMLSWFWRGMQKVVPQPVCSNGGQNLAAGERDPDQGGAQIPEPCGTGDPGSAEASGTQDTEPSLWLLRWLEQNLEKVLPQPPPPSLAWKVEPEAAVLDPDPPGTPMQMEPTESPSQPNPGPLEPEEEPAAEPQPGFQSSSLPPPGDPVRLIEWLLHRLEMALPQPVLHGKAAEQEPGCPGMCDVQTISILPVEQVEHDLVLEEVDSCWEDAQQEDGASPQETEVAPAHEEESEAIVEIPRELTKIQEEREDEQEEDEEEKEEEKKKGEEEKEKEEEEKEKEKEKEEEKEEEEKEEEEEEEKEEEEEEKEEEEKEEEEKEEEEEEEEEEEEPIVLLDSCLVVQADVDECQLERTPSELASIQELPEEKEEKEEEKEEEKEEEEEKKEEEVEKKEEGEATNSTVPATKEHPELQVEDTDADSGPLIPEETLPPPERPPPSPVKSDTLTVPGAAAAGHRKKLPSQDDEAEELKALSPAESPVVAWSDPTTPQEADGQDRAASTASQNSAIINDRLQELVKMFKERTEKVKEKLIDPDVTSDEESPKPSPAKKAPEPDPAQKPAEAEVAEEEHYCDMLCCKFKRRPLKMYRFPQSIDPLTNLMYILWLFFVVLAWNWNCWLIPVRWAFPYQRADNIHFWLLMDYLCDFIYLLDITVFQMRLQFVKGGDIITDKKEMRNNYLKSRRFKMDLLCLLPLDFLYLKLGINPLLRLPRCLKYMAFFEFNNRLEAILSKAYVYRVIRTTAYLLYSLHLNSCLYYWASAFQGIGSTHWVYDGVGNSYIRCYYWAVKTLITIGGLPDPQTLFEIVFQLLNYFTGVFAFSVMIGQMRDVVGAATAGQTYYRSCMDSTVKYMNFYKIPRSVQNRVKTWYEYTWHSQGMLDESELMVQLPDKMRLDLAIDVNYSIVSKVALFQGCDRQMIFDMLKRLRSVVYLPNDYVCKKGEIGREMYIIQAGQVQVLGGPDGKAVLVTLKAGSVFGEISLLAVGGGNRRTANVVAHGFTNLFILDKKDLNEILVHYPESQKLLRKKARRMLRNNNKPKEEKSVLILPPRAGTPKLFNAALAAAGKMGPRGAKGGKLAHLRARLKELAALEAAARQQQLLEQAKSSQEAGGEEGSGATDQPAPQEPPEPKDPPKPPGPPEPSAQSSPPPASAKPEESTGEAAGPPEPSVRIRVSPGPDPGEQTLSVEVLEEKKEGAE
UniProt P63044: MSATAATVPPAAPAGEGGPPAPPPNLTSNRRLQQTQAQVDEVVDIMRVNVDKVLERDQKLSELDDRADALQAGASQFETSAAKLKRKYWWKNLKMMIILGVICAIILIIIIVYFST
UniProt P60879: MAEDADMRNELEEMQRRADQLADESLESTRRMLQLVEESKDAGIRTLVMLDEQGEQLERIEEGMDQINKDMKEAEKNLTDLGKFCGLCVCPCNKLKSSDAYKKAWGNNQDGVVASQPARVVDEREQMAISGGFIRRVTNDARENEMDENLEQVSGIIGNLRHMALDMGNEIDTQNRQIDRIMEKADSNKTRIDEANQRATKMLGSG
UniProt P62897: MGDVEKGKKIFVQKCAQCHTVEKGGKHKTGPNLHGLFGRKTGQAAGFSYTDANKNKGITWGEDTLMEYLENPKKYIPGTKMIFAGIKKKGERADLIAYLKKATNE
UniProt P20443: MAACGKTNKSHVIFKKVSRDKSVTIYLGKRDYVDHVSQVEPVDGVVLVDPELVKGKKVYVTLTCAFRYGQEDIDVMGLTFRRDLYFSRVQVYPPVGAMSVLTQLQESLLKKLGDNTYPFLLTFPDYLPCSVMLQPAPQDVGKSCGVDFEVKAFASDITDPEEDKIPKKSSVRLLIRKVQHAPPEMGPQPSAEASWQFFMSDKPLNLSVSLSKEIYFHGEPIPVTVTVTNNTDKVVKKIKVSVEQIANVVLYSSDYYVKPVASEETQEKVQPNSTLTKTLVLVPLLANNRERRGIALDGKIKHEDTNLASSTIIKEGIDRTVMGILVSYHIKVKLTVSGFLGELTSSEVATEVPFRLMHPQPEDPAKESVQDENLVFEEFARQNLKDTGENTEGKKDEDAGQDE

Experiment [1] addresses T1, Syn3B expressed in HEK293 cells (pCMV6-syntaxin 3B) (UniProt Q64704).
T1 sequence: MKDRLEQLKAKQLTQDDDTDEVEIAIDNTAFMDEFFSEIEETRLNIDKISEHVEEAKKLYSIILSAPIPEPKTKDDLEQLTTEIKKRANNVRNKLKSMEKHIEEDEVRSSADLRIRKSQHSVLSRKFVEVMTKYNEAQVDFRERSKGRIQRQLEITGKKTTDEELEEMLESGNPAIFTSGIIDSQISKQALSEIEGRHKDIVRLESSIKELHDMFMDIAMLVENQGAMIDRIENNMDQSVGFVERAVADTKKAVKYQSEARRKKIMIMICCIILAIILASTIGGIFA
Kind of experiment: co-IP; HEK293 cells double transfected; extracts solubilized with Triton X-100; IP with RDS, ROM-1 or Syn3B antibodies and protein A sepharose; western blot.

Experiment [2] concerns the target T2, Syntaxin-3 isoform B (Stx3) (mouse (endogenous in retina)) (UniProt Q64704).
T2 sequence: T1 sequence
Kind of experiment: co-IP; Triton X-100 extracted WT mouse retinas; IP with RDS, ROM-1 or Syn3B antibodies and protein A sepharose; western blot. In general terms: In western blotting, separated proteins are transferred to a membrane and probed.

Experiment [3] addresses T3, Peripherin-2 also known as RDS (retinal degeneration slow) (mouse (endogenous in retina)) (UniProt P15499).
T3 sequence: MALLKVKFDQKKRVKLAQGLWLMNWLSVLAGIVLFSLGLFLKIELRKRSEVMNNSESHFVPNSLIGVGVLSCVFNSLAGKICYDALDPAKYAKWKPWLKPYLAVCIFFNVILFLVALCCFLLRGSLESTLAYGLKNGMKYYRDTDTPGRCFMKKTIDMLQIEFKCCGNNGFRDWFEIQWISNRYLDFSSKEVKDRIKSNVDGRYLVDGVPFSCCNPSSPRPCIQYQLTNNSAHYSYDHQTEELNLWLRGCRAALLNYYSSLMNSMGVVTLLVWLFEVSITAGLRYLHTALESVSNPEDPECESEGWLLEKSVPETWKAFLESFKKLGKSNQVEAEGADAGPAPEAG
Nature of the experiment: co-IP; CHAPS-solubilized WT mouse retinal extracts; IP with RDS, ROM-1 or Syn3B antibodies; western blot.

Experiment [4] deals with ROM-1 (rod outer segment protein 1) (mouse (endogenous in retina)) (UniProt P32958). The experiment is described as above.
Experiment [5] concerns the target T3, Peripherin-2 also known as RDS (retinal degeneration slow) (mouse (endogenous in retina)). Kind of experiment: proximity ligation; Duolink In Situ kit on WT mouse retinal cryosections; paired sections with regular immunofluorescence.
Experiment [6] deals with T4, WT RDS expressed in HEK293 cells (UniProt P15499).
T4 sequence: T3 sequence
Kind of experiment: co-IP; HEK293 cells double transfected; extracts solubilized with CHAPS; IP with RDS, ROM-1 or Syn3B antibodies; western blot.

Experiment [7] deals with WT ROM-1 expressed in HEK293 cells (UniProt P32958). Described as above.
Experiment [8] addresses T2, Syntaxin-3 isoform B (Stx3) (mouse (endogenous in retina)). Kind of experiment: co-IP; retinal extracts of WT, nrl-/-, rds C150S/C150S, rds Y141C/Y141C, R172W/rds-/- and R172W/rds-/-/nrl-/- mice; detergent not indicated; IP with anti-Syn3B-478 (elution non-reducing, or eluents treated with EndoH) or with RDS antibodies (mAB 2E7 or RDS-CT); western blot.
Experiment [9] addresses T4, WT RDS expressed in HEK293 cells. Kind of experiment: co-IP; HEK293 cells single transfected; extracts mixed in a 1:1 ratio (based on total protein) after extraction, then IP; western blot.
For experiment [10], the target named is T5, C150S-RDS expressed in HEK293 cells (UniProt P15499).
T5 sequence: T3 sequence with C150S
Kind of experiment: co-IP; HEK293 cells transfected with WT or C150S RDS and Syn3B; detergent not indicated; IP for RDS (mAB 2E7 or RDS-CT); western blot for Syn3B.

In experiment [11] the target is T4, WT RDS expressed in HEK293 cells. Kind of experiment: co-IP; HEK293 cells double transfected; extracts solubilized with Triton X-100; IP with RDS, ROM-1 or Syn3B antibodies and protein A sepharose; western blot.
Experiment [12] has as its target WT ROM-1 expressed in HEK293 cells (UniProt P32958). The description is as above.

As to “WT ROM-1 expressed in HEK293 cells (from UniProt P32958 1-351)”, the binding entry in experiment [1] is reported as “binds”.
As for “GARP/beta subunit of the rod cyclic nucleotide gated channel (CNGβ) (from UniProt E1AZ71 1-1325)”, in experiment [2], the binding entry is recorded as “no binding”.
For “VAMP2-myc-DDK expressed in HEK293 cells (from UniProt P63044 1-116)”, the binding entry in experiment [1] was “binds”.
As to “synaptosomal-associated protein 25 (SNAP25) (from UniProt P60879-1 1-206)”, the binding result in [3] and in experiment [4] was “binds” in each case.
In the case of “cytochrome C (from UniProt P62897 1-105)”, the binding entry in experiment [5] was “no binding”.
“SNAP-25 expressed in HEK293 cells (pCMV-SPORT6-SNAP-25) (from UniProt P60879 1-206)”: the binding entry in experiment [6] and in [7] was “binds” throughout.
Take arrestin 1 (from UniProt P20443 1-403): the binding result in [2] is on record as “no binding”.
Consider “ROM-1 (rod outer segment protein 1) (from UniProt P32958 1-351)”, for which the binding entry in experiment [5], in experiment [2] and in experiment [8] was “binds” throughout.

B1: Syn3B expressed in HEK293 cells (pCMV6-syntaxin 3B) (protein, UniProt Q64704-2 1-287)
chain: T1 sequence
With B1, the binding entry in experiment [9], in [10], in [11] and in experiment [12] was “binds” throughout.

B2: WT RDS expressed in HEK293 cells (protein, UniProt P15499 1-346)
chain: T3 sequence
For B2, in experiment [1], the binding entry is reported as “binds”.

B3: Peripherin-2 also known as RDS (retinal degeneration slow) (protein, UniProt P15499 1-346)
chain: T3 sequence
B3: the binding result in [2] and in experiment [8] was “binds” throughout.

The values above are taken from PMC4583372.
